Measurements as given in publication PMC4336329 (PLoS ONE, 2015).
Hit rate of the full screen: of about 310,000 compounds, about 2,200 (0.71%) showed an effect of 50% or more. Effects have a minus sign here. The list shows a part of the results.

Molecular target: human ether-à-go-go-related gene (hERG) potassium channel (human, UniProt Q12809)
Test: primary screen, population patch clamp on CHO cells stably expressing hERG

Chain of human ether-à-go-go-related gene (hERG) potassium channel (Q12809 whole entry, looked up): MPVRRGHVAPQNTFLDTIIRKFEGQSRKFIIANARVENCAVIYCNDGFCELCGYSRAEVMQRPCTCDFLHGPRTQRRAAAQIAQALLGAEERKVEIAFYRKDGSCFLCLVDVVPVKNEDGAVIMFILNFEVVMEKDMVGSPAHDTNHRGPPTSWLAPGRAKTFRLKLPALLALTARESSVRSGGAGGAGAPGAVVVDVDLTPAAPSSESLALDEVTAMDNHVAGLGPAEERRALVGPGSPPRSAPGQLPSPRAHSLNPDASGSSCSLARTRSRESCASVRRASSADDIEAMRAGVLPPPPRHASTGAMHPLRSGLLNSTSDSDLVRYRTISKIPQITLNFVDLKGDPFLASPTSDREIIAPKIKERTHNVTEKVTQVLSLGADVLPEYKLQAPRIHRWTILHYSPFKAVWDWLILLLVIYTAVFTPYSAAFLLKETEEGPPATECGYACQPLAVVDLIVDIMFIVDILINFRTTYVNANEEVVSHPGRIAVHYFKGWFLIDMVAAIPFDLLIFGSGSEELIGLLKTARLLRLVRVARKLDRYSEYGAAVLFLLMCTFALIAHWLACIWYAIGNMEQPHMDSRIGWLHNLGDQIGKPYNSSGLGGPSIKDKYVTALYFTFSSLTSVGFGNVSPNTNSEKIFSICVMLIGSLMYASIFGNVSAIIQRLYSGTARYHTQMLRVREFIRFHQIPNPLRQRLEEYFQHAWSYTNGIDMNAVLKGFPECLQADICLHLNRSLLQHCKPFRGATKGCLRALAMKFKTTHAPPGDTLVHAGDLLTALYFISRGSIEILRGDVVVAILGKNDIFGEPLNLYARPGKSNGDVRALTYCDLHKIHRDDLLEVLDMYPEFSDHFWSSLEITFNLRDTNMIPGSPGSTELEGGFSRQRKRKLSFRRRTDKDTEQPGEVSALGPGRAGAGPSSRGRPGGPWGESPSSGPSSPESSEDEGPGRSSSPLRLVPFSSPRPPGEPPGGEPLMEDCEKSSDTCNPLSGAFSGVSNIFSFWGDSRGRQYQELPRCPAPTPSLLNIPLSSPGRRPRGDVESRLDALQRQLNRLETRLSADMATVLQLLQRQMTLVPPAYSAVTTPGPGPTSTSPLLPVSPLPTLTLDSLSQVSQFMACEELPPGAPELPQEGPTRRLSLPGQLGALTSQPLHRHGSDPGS

SMILES | hERG current change (%, negative = inhibition) at 1uM [%]
Cc1csc(NC(=O)CCCC(=O)c2ccccc2)n1 | 8.01
COc1ccc(-c2ccc(/C=N/NC(=O)Cc3nnc(N)s3)o2)cc1Cl | 12.2
COc1ccc(Cn2c(C3CC3)nc3ccc(NC(=O)C4CC4)cc3c2=O)cc1 | 8.33
Nc1c(S(=O)(=O)c2ccccc2)c2nc3ccccc3nc2n1C1CC1 | 5.09
CCn1c(=O)c(C(=O)CN(C)Cc2cccc(OC)c2OC)c(N)n(Cc2ccccc2)c1=O | -18.3
Cc1csc(=O)n1CC(=O)OCC(=O)NCc1ccccc1 | 6.17
CC(=O)OCC[N+](C)(C)C.[Br-] | 10.7
O=C(Nc1ccncc1)c1ccc([N+](=O)[O-])cc1Cl | 7.44
Cc1c(-c2ccccc2)c(=O)oc2ccc(O)cc12 | 15.4
COc1ccccc1C(CNC(=O)c1cccc(S(=O)(=O)Nc2ccc(C)cc2)c1)N1CCCC1 (stereo not drawn) | 2.59
CCOc1ncccc1C(=O)OCC(=O)c1c[nH]c2ccccc12 | 3.73
Cc1nnc(SCC(=O)NNC(=O)c2ccco2)n1-c1ccccc1 | 12.1
CCN(CCO)C(=O)c1ccc2oc(Cc3ccc(Cl)cc3)nc2c1 | 10.9
Cc1ccc([N+](=O)[O-])cc1N=C1C(=O)Nc2ccccc21 | 7.89
Cc1ccc(S(=O)(=O)N2CCC(C(=O)NNC(=O)c3ccccc3O)CC2)cc1C | 5.25
CC(C)(C)OC(=O)[C@H](Cc1ccccc1)NC(=O)c1nc[nH]c1C(=O)NC1CCN(C(=O)OC(C)(C)C)CC1 | 12.5
CCN1CCN(C(=O)c2cc3nc(-c4ccccc4)cc(C(F)(F)F)n3n2)CC1 | 5.33
CC(C)Nc1ccc(C(CC(N)=O)NC(=O)Cc2ccc(Br)cc2)cc1[N+](=O)[O-] (stereo not drawn) | 1.18
CC1CCCCN1C(=O)NC1CC(=O)N(c2ccc3c(c2)OCCO3)C1 (stereo not drawn) | 14.9
Cc1ccc(Cl)cc1N1CCN(C(=O)CSc2ccsc2[N+](=O)[O-])CC1 | -1.03
CN(C)/C=c1\sc2c(C#N)cc(C(=O)c3ccc(Br)cc3)n2c1=O | 3.43
C=CCN(CC=C)Cc1c(O)ccc2c1oc(=O)c1ccccc12 | -17.5
Cc1ccc(-n2nc3c(=O)n(CC(=O)c4ccc(F)cc4)nc(C)c3c2C)cc1 | -4.69

SMILES | hERG current change (%, negative = inhibition) at 1uM [%]
CCOC(=O)c1sc(NC(=O)C(C)Sc2nc(N)cc(=O)[nH]2)nc1C (stereo not drawn) | 14
CCCNCc1cc(OCC)c(OCC(N)=O)cc1Br | 9.02
COc1ccc(OC)c(S(=O)(=O)NCCCn2ccnc2)c1 | 13.2
Cc1cccc(C(=O)Oc2ccccc2/C=N/Nc2ccc([N+](=O)[O-])cc2)c1 | 15.4
CC1CCC(C(=O)NC(C(=O)NCc2ccccn2)C(C)C)CC1 (stereo not drawn) | 6.45
CC(Sc1nncn1C)C(=O)Nc1nnc(-c2ccccc2)s1 (stereo not drawn) | 12.2
CC(C)c1ccc(Nc2nc(Cl)nc(Cl)n2)cc1 | 13.5
O=C(C1CCN(c2nnc(-n3cccc3)s2)CC1)N1CCN(c2cccc(C(F)(F)F)c2)CC1 | -6.44
CCOC(=O)C1(Cc2cccc(OC)c2)CCCN(Cc2cnn(C)c2)C1 (stereo not drawn) | 8.31
CCOc1ccc2nc(SCC(=O)Nc3ccc4[nH]c(=O)[nH]c4c3)[nH]c2c1 | 25.2
COc1ccc2c(c1)CC(C(=O)Nc1ccc(Cl)cc1)/C(=N/O)O2 (stereo not drawn) | 15.2
O=C(CCCN1C(=O)/C(=C/c2cccc(Br)c2)SC1=S)NCCCN1CCOCC1 | 4.2
COc1ccc(C2CC(c3ccc([N+](=O)[O-])cc3)=NN2C(=O)c2ccccc2)cc1OC (stereo not drawn) | 8.63
COC(=O)CSc1nnc(-c2c[nH]c3ccccc23)o1 | 0.583
O=C(C/C(=N\NC(=O)c1ccccc1Br)C(F)(F)F)c1cccs1 | 3.65
Cc1cc(Cn2nnc(-c3ccc(Br)cc3)n2)cc(C)c1O | 11.1
CCOc1ccc(OCCCN(C)C)cc1 | 11.3
CN(C)c1ccc(C(C#N)c2ccc(Cl)cc2)nn1 (stereo not drawn) | 6.89
Cc1cc(C(F)(F)F)n(-c2nc(C(=O)NNS(=O)(=O)c3ccccc3)cs2)n1 | 2.27
O=C(CC1C(=O)NCCN1C(=O)Nc1ccc(C(F)(F)F)cc1)Nc1ccc(F)cc1 (stereo not drawn) | 12.3
CNC(C)C(=O)NC(C(=O)N1CCCC1C(=O)NNc1ccccc1)C(C)C.O=CO (stereo not drawn) | 8.62
Cc1ccc(S(=O)(=O)c2nc(C(C)(C)C)oc2N2CCOCC2)cc1 | 8.74
